Test results: PubChem BioAssay AID1508624 (National Center for Advancing Translational Sciences (NCATS), 2021)
The whole screen tested about 48,000 compounds, of which about 120 (0.25%) were called active. Another 4% or so got no clear call; they are omitted. The call rests on the fitted dose curve; in most records, active means well fitted activation curve with a large enough effect; inconclusive means small, poorly fitted or top-dose-only effect, or another doubt; inactive means no such curve, though single readings can be large or run the other way. Some of the results follow.

assay: Primary qHTS for Identification of Small Molecule Activators of Huntingtin-Antisense Promoter Activity; settings: HEK293 HTT-AS promoter firefly luciferase reporter, 24 h; series mostly up to 57.5 µM; activity change, positive = activation: at the top concentration; further: nearly all actives have a fitted effect of over 55% in size
Procedure, shortened: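 HEK293 luciferase promoter-reporter cells (2,500/well) plated 24 h, then compounds added at up to 57.5 uM final for 24 h at 37 °C. Firefly luminescence by Dual-Glo, normalized to vehicle (0%) and zero RLU (-100%).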

Activity change, positive = activation, inactive:
CCn1cc(C(=O)N2CCN(c3cc(C)ccc3C)CC2)c(=O)c2cc(S(=O)(=O)N(C)C3CCCCC3)ccc21 -10.6%, CN1CC(=O)NC1=NC(=O)Nc1cccc(Cl)c1 -0.525%, Cc1ccccc1Nc1c(-c2ccc(N3CCOCC3)cc2)nc2ncccn12 37.2%, Cc1c(CNC(C)CCc2ccccc2)c(C(=O)O)c(C)n1Cc1ccc(F)cc1Cl (centres undefined) -19%, CC1=C(C(=O)O)N2C(=O)[C@@H](NC(=O)[C@H](N)c3ccc(O)cc3)[C@H]2SC1 1.56%, O=C(Nc1ccccc1-c1nc2ccccc2s1)c1cc(Cl)cc(Cl)c1 7.03%, O=C(c1ccccc1Cl)n1nc(-c2cccnc2)nc1NCc1ccc(F)cc1 -4.99%, COC(=O)c1scc(-c2ccccc2)c1S(=O)(=O)Nc1cccc(C)c1C -27.2%, CCCCOc1ccc(C(=O)N(Cc2ccc(C(C)C)cc2)C2CCS(=O)(=O)C2)cc1 (centres undefined) -31.4%, COc1ccc(N2CCN(C3=NS(=O)(=O)C(c4cccc(Br)c4)=C3C)CC2)cc1 -19.9%, CCOC(=O)c1ccc(NC(=O)CCc2c(C)nc3nc[nH]n3c2=O)cc1 -12.1%, Cc1cc(C)c(NC(=O)CCc2c(C)nc3c(c(C)nn3C(C)(C)C)c2C)c(C)c1 -7.81%, COc1ccc(C2=NN(CC(=O)NCCCN(C)c3ccccc3)C(=O)CC2)cc1 -16.9%, COC(=O)c1cc2sc(C)cc2n1Cc1ccc(Br)cc1F 1.44%, Cc1ccc2c(=O)cc(CSc3nnc(-c4ccccc4)n3C)[nH]c2c1C -14.1%, CC(C)c1ccc(S(=O)(=O)Nc2ccc3oc4c(c3c2)C(=O)CC(C)(C)C4)cc1 -22.7%, Cc1cc(C)c(NC(=O)c2cc3c(=O)n4ccccc4nc3n2C)c(C)c1 -30.9%, Cc1cc(-c2nc3ncccc3o2)ccc1NC(=O)c1ccc(Br)cc1 -2.94%, CCOC(=O)Cn1c(=O)n(C2CCCCC2)c2nc(-c3ccc(Cl)cc3)nc(C(N)=O)c21 -5.13%, COCCCNC(=O)c1sc2nc(C)c(C(=O)Nc3ccc(C)cc3C)c(-c3ccc(Cl)cc3)c2c1N -4.44%, Cc1c(Cl)cccc1NC(=O)c1ccc(C(=O)Nc2cccc(Cl)c2C)cc1 -1.86%, CC(=O)Nc1ccc(S(=O)(=O)N2CCC(Oc3ccc(-n4cnnn4)cc3)CC2)cc1 -33.2%, CC1CCN(C(=O)c2cnn(-c3cccc(Cl)c3)c2C2CCN(C(=O)OC(C)(C)C)CC2)CC1 -9.64%, CC(=O)N1CCc2c(sc3c2c(=O)n(-c2ccccc2C)c(=O)n3Cc2cccc(F)c2)C1 -37.5%, COc1cc(OC)cc(-n2nnc(-c3nc(-c4ccccc4Cl)no3)c2N)c1 12.1%, C[C@@H](O)[C@H]1C(=O)N2C(C(=O)O)=C(SCCN=CN)C[C@H]12 -9.23%, CN(CC1(C)CCCO1)S(=O)(=O)c1ccc(Cl)c(S(N)(=O)=O)c1 (centres undefined) -7.38%, COc1ccc(OCC(=O)NCC(c2ccc(Cl)cc2)N2CCCCC2)cc1 (centres undefined) -8.94%, CSc1ccc(CNC(=O)c2ccccc2NC(=O)c2nsc3ccccc23)cc1 20%, CC(=O)N1c2ccccc2C(=O)C1N1CCN(c2ccccc2)CC1 (centres undefined) -11.7%, COc1ccc(NC(=O)c2c(-c3ccccc3)c(-c3ccccc3)nn(C)c2=O)c(OC)c1 -15.9%, COc1ccc(-n2cc(-c3ccccc3)nc2SCC(=O)Nc2ccccc2)cc1Cl -11.4%, CCc1ccc(S(=O)(=O)c2nnn3c2nc(N2CCCC2)c2sccc23)cc1 -5.83%, COc1ccc(NC(=O)COCc2cc(-c3cccs3)on2)cc1 2.88%, Cc1ccccc1C1C=C(c2ccc(Cl)cc2)Nc2nnnn21 (centres undefined) -17.4%, CN1C(=O)Cc2cc(S(=O)(=O)CCC(=O)N3CCN(c4ccccc4F)CC3)ccc21 -11.7%, COc1ccc(-c2cc(C(F)(F)F)n3nc(C(=O)Nc4cccc(Cl)c4C)cc3n2)cc1 -3.12% [at 11.5 µM, percent change from vehicle, -100% = no light], CCOC(=O)c1ccc(NC(=O)Cn2cnc(S(=O)(=O)N3CCCC3)c2)cc1 -18.4%, COc1ccc(-n2nc3c(N4CCCC(C(=O)NCCc5ccc(C)cc5)C4)nnc(C)c3c2C)cc1 (centres undefined) -23.7%, Cc1ccc2oc3c(c(=O)c2c1)C(c1ccc(F)cc1)N(c1nc(C)c(C)s1)C3=O (centres undefined) -1.61%, COCCNC(=O)C(=O)NCC(c1cccnc1)N1CCN(c2ccccc2F)CC1 (centres undefined) -4.45%, COc1ccc(C2CC(=O)Nc3c2c(=O)[nH]c2nc4ccccc4n32)cc1OC (centres undefined) -14%, COc1ccccc1Nc1nc2ccc(Cl)cc2nc1-n1nc(C)cc1C 5.42%, COc1ccc(NC(=O)c2nc3nc(C)cc(C(F)F)n3n2)c(C)c1 8.24%, CCOC(=O)c1ccc(NC(=O)CC2C(=O)N(c3ccc(F)cc3)C(=O)N2Cc2ccc3c(c2)OCO3)cc1 (centres undefined) -28.4%, CCOC(=O)c1cccc(NC(=O)C2CCN(S(=O)(=O)c3cn(C)cn3)CC2)c1 -2.63%, Cc1ccc(C)c(NS(=O)(=O)c2cc3c(cc2Cl)NC(=O)CO3)c1 -24.5%, CCc1ccc(NC(=O)N2CC(C)Oc3ccc(C)cc32)cc1 (centres undefined) -6.54%, CC(C)(C)OC(=O)N1CCC(c2c(C(=O)NCCN3CCC(Cc4ccccc4)CC3)cnn2-c2ccccc2)CC1 -30.1%, COCCCNc1ncnc2c1cnn2-c1ccc(F)cc1 21.6%, COc1cc2ccccc2cc1C(=O)Nc1ccc2oc(-c3cccc(Cl)c3Cl)nc2c1 3.18%, COc1ccc(C(=O)N2CCc3cc(OC)c(OC)cc3C2COc2ccc3c(C)cc(=O)oc3c2)c(OC)c1 (centres undefined) 4.65%, Cc1cc(C)n(-c2nc3ccccc3nc2Nc2cc(C(=O)O)ccc2C)n1 -2.73%, Cc1ccc(CN2CCN(CC(=O)NCc3ccccc3Cl)C2=O)cc1 -9.12%, COc1cc(NS(=O)(=O)c2ccc3c(c2)CCCN3C(C)=O)cc(OC)c1OC -66.5%, Cc1cc(C)cc(-n2nnc(-c3nc(-c4ccccc4F)no3)c2C)c1 22.7%, Cc1ccc(NC(=O)C(=O)NCC(c2cccnc2)N2CCc3ccccc32)cc1Cl (centres undefined) -22.8%, CCOc1ccccc1NC(=O)CN1C(=O)C2(SCC(=O)N2c2cccc(F)c2)c2ccccc21 (centres undefined) -11.1%, Cc1c(Cl)cccc1NC(=O)CCn1nc(C)c2c(C)n(-c3ccccc3)nc2c1=O 8.14%
